From PMC11718236, “The Psu protein of phage satellite P4 inhibits transcription termination factor ρ by forced hyper-oligomerization” (Nature Communications, 2023) come the findings set out here.

Data set [1] concerns the target T1, N-terminally His6-tagged Psu (wild type), co-produced with ρ in E. coli (phage satellite P4, UniProt P05460 1-190).
T1 construct: polarity suppression protein Psu of phage satellite P4; also called Psu^wt; His6-Psu; source: E. coli BL21(DE3), pET28b, co-produced with ρ variants, in lysate; not shown: His6, N-terminal, kept
T1 sequence: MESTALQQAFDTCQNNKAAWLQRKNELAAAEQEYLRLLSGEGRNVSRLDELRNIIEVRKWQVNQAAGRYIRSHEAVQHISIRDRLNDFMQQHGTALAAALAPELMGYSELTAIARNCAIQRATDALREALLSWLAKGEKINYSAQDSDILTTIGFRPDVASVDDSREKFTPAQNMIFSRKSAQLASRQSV
The experiment in a line: pull-down; ρ variants and N-terminally His6-tagged Psu variants co-produced in E. coli BL21(DE3); lysates passed through Ni2+-NTA; 100 mM NaH2PO4 pH 7.0, 100 mM NaCl, 10-20 mM imidazole, elution 500 mM imidazole; Coomassie-stained gels quantified; pulled-down ρ = E/(FT+W+E) x 100. Conditions: partners not purified.

Data set [2] concerns the molecule itself. Nature of the data set: cryo-EM structure; ρ^P167L-ATPγS-Psu complexes; 10 mM TRIS-HCl pH 8.0, 120 mM KOAc, 5 mM Mg(OAc)2, 5 µM ZnCl2; 1 mM ATPγS; single-particle analysis.

B1: transcription termination factor ρ Y197A, co-produced with His6-Psu in E. coli (enzyme)
chain: not shown
notes: transcription termination factor ρ (Rho) of E. coli with Y197A; source: E. coli BL21(DE3), pET21b, co-produced with His6-Psu, in lysate
On to B1, for which the “ρ pulled down (%)” value in data set [1] was approximately 25%.

B2: transcription termination factor ρ P167L variant, non-tagged, purified (enzyme)
chain: not shown
notes: transcription termination factor ρ (Rho) of E. coli with P167L; non-tagged; source: E. coli BL21 RIL, purified (heparin column, Superdex 200 SEC)
Turning to B2, the binding result in data set [2] is on record as “binds”.
